Test results reported in PubChem BioAssay AID360 (National Center for Advancing Translational Sciences (NCATS), 2006).
Among all 48,000 compounds or so, about 550 (1.1%) were called active. About 4% were inconclusive and are not listed. Rule as the data show it: active = potency below about 15 µM; inconclusive = mostly about 16 µM to 33 µM; inactive = weaker than that. This is one part of the list.

These molecules were tested against Lysosomal acid glucosylceramidase (Homo sapiens) (UniProt P04062) (assay: Glucocerebrosidase). Details: purified enzyme, resorufin glucoside fluorescence (screen aimed at inhibitors), 20 min.
Procedure, shortened: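 Compounds titrated against 0.2 nM normal enzyme, 30 uM resorufin beta-D-glucopyranoside substrate, citrate/phosphate buffer with taurocholate and tween-20, pH 5.9. Reaction ran 20 min at room temperature; fluorescence (Ex 548/Em 600) gave AC50.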
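Also: the screen sought inhibitors.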
Potency is read from the fitted curve at half-maximal effect.

UniProt P04062, sequence (P04062 whole entry, looked up): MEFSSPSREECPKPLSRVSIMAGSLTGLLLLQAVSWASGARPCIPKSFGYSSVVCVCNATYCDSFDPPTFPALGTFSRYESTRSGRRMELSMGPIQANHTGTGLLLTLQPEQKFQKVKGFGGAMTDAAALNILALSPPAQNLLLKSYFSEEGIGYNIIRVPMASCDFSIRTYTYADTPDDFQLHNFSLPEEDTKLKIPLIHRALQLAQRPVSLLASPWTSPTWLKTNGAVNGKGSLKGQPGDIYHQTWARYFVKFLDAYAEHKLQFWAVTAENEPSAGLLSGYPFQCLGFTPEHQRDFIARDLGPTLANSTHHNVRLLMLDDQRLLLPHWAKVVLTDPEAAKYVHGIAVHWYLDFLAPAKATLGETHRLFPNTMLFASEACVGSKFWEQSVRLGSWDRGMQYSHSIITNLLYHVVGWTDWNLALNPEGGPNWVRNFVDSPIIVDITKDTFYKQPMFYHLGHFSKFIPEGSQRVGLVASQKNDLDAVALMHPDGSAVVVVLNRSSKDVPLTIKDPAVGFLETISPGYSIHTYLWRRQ

Potency, inactive:
Cc1ccc2cccc(SCC(=O)NCc3ccco3)c2n1 > 76.9 µM
CCc1ccccc1N(CC(=O)OC)S(C)(=O)=O > 76.9 µM
CCOc1ccc(NC(=O)C2CCN(S(=O)(=O)c3c(C)n[nH]c3C)CC2)cc1 > 76.9 µM
O=C(CCN1C(=O)COc2ccccc21)NCc1cccs1 > 76.9 µM
CC(C)CC(OC(=O)c1ccco1)C(=O)NCC1CCCO1 (stereo not drawn) > 76.9 µM
CC(=O)N1CCCc2cc(S(=O)(=O)NCc3ccc(C)cc3)ccc21 > 76.9 µM
COc1cc(S(=O)(=O)Nc2ncccc2C)c(OC)cc1Cl > 76.9 µM
CCCCn1nnnc1SCC(=O)N1CCN(C(=O)c2ccco2)CC1 > 76.9 µM
Cc1cccc2cc3c(N)c(C(=O)N4CCOCC4)sc3nc12 > 76.9 µM
CN(C(=O)C1CCOC1)c1nnc(-c2ccncc2)s1 (stereo not drawn) > 76.9 µM
Nc1ncnc2c1ncn2CCOc1ccccc1 > 76.9 µM
O=C(CSc1ccc2c(c1)OCCO2)NCC1CCCO1 (stereo not drawn) > 76.9 µM
COCCn1nnnc1C(c1ccc(C)cc1)N1CCN(Cc2ccc3c(c2)OCO3)CC1 (stereo not drawn) > 76.9 µM
O=C1NC(=O)C2(COC3(CCCC3)OC2)S1 > 76.9 µM
O=C(Sc1nnnn1C1CCCCC1)c1cccs1 > 76.9 µM
COC(=O)c1[nH]c2cccc(OC)c2c1NC(=O)CN1CC2(C)CC1CC(C)(C)C2 (stereo not drawn) > 76.9 µM
O=C(CN1CCC(n2nnc3ccccc32)CC1)NCc1cccs1 > 76.9 µM
CCCCCN(C(=O)NC(=O)NC(C)CC)S(C)(=O)=O (stereo not drawn) > 76.9 µM
O=C(c1ccccc1)c1ccncc1 > 76.9 µM
CCn1cc(C(=O)NCC(=O)OC)c2cc(OC)c(OC)cc2c1=O > 76.9 µM
CC(C)(C)NC(=O)CSc1nncn1NCc1ccccc1 > 76.9 µM
Cc1cccc(NS(=O)(=O)c2cc(C(=O)OCC(=O)Nc3cc(C)on3)ccc2C)c1
Brc1ccccc1-c1nnc2sc(-c3ccc4c(c3)OCCO4)nn12 > 76.9 µM
O=c1c2cnn(-c3ccc(F)cc3)c2ncn1Cc1cccnc1 > 76.9 µM
Cc1ccc(C)c(N2CCN(C(=O)CC3Sc4ccccc4NC3=O)CC2)c1 (stereo not drawn) > 76.9 µM
CCOc1ccccc1-c1nc(-c2ccc(NC(=O)Cc3ccccc3OC)cc2)no1 > 76.9 µM
CCOc1ccc(NC(=O)c2ccccc2NC(=O)CN2CCN(C(C)=O)CC2)cc1 > 76.9 µM
CSCC[C@H](NC(=O)Nc1ccc(C)cc1C)C(=O)O > 76.9 µM
Cc1cc(C(=O)NCc2ccc(S(N)(=O)=O)cc2)c(C)o1 > 76.9 µM
Cc1ccc(CNC(=O)C(OC(=O)c2ccco2)C(C)C)cc1 (stereo not drawn) > 76.9 µM
Cc1ccc(CN2C(=O)CCC2C(=O)NC(C)C)cc1 (stereo not drawn) > 76.9 µM
CCN(CC)C(=O)CSc1nc(O)cc(=O)n1C > 76.9 µM
Cc1occc1-c1nnc(SCC(=O)Nc2ccc(F)cc2)n1Cc1ccccc1
COCCN(CC(=O)NCc1ccccc1)C(=O)CCC(=O)Nc1nccs1 > 76.9 µM
CCOC(=O)c1oc2ccc(S(=O)(=O)N3CCC(C)CC3)cc2c1C > 76.9 µM
Cc1noc(C)c1C(=O)OCC(=O)NC(=O)NC12CC3CC(CC(C3)C1)C2 > 76.9 µM
COC(=O)COc1ccc(S(=O)(=O)NCCC2=CCCCC2)cc1C > 76.9 µM
CCN1C(=O)C2C(c3ccc(O)c(OC)c3)NC(C)(C(=O)OC)C2C1=O (stereo not drawn) > 76.9 µM
O=C(Nn1c(-c2ccccc2)nc2ccccc2c1=O)C1CCC1 > 76.9 µM
O=C(CSc1nc2ccccc2[nH]1)Nc1ccc2c(c1)OCCO2 > 76.9 µM
CCN1C(=O)CC(C(=O)Nc2ccc(F)cc2)SC1=Nc1cccc(OC)c1 (stereo not drawn)
Cc1n[nH]c(C)c1S(=O)(=O)N1CCCC(C(=O)NCC2COc3ccccc3O2)C1 (stereo not drawn) > 76.9 µM
O=C(Nc1nnc(C2CCCC2)s1)C1CCC1 > 76.9 µM
Cc1cc2cc(CCNC(=O)c3ccc(S(=O)(=O)N4CCOCC4)cc3)c(=O)[nH]c2cc1C > 76.9 µM
O=C1C=C(NCc2ccco2)CCC1 > 76.9 µM
CC(=O)NC(c1ccccc1)c1nc2ccccc2[nH]1 (stereo not drawn) > 76.9 µM
C=CCOC(=O)C(C#N)c1nc2ccccc2nc1N1CCCC1 (stereo not drawn) > 76.9 µM
CCCCn1ccnc1C(=O)c1ccc(S(=O)(=O)N(CCOC)CCOC)cc1 > 76.9 µM
O=C(CCS(=O)(=O)c1ccc(Cl)cc1)N1CCN(c2ccccc2F)CC1 > 76.9 µM
COc1cccc(NC(=O)Cc2c(O)c3ccccc3[nH]c2=O)c1 > 76.9 µM
CCN1CCc2nc(NC(=O)Cc3ccc4c(c3)OCCO4)sc2C1 > 76.9 µM
O=C(Cn1cnc2c(cnn2-c2ccc(F)cc2)c1=O)N1CCN(c2ccccc2F)CC1 > 76.9 µM
O=C1CN(c2ccccc2F)C(=O)CN1c1ccccc1F > 76.9 µM
O=C(CN1CCC(C(=O)c2ccc(F)cc2)CC1)Nc1ccccc1 > 76.9 µM
Cc1c(C(=O)N2CCCC2)sc(NC(=O)c2cccs2)c1C#N > 76.9 µM
Cc1cc(-c2nsc(=O)o2)c(S(C)(=O)=O)s1 > 76.9 µM
CCCCC1(CC)C(=O)NC(=O)NC1=Nc1ccc(OC)cc1 (stereo not drawn) > 76.9 µM
CCCn1c(CCc2ccccc2)nnc1SCC(=O)N1CCCC1 > 76.9 µM
CCOc1ccc(-c2nn[nH]n2)cc1 > 76.9 µM
Cc1ccc(-n2c(C)c3c(C)nnc(C)c3c2C)cc1 > 76.9 µM
COc1ccc(OCCCC(=O)Nc2nncs2)cc1 > 76.9 µM
CCN(CC)C(=O)C1CCC(C)(C(=O)O)C1(C)C (stereo not drawn) > 76.9 µM
O=C(Cc1cn2ccsc2n1)Nc1nc2c(s1)CCCC2 > 76.9 µM
O=C(CSc1nc2cccnc2n1Cc1ccccc1)NCc1ccco1 > 76.9 µM
COc1cccc(CNc2ccc(S(=O)(=O)Nc3nccs3)cc2)c1O > 76.9 µM
Cc1cc(NC(=O)CSc2nccn2-c2ccc(F)cc2)no1 > 76.9 µM
CCCCCOC(=O)C1=C(C)Nc2nnnn2C1c1ccc(OC)c(OC)c1OC (stereo not drawn) > 76.9 µM
O=C(NC1CC2CCC1C2)C1COc2ccccc2O1 (stereo not drawn) > 76.9 µM
O=C(N1CCOCC1)N1CCN(CC(O)COc2ccc3ccccc3c2)CC1 (stereo not drawn) > 76.9 µM
Cc1nc2ccccc2n1CCC(=O)Nc1cccc(F)c1 > 76.9 µM
CCOC(=O)c1ccc(NC(=O)c2c(C)[nH]c(C(=O)OCC)c2C)cc1 > 76.9 µM
COc1ccc(NC2c3ncccc3C(=O)N2Cc2ccccc2)c(OC)c1 (stereo not drawn) > 76.9 µM
CCC(OC(=O)c1cccs1)C(=O)NC1CCCCC1 (stereo not drawn) > 76.9 µM
O=C1NCCCC1C(=O)N1CCN(C(=O)C2CCCNC2=O)CC1 (stereo not drawn) > 76.9 µM
CCC12CN(C(=O)c3ccc(OC)cc3)CC(CC)(CN(C(=O)c3ccc(OC)cc3)C1)C2=O > 76.9 µM
COc1ccccc1NC(=O)CSc1nnc(Cc2cccn2C)n1CCc1ccccc1 > 76.9 µM
O=C(CN1CCN(c2ccc(F)cc2)CC1)Nc1cccc(C(F)(F)F)c1 > 76.9 µM
O=C(C1CCN(S(=O)(=O)N2CCOCC2)CC1)N1CCc2ccccc21 > 76.9 µM
CCOc1cc(C(=O)NCC2CCCO2)cc(OCC)c1OCC (stereo not drawn) > 76.9 µM
C=CCn1c(Sc2nncn2C)nc2c1c(=O)[nH]c(=O)n2C > 76.9 µM
CC(=O)NC12CC3CC(C1)CC(C(=O)OCC(=O)Nc1ncc(Cl)c(C)c1Cl)(C3)C2 > 76.9 µM
C=CCn1c(COc2cccc3cccnc23)nnc1SCC(=O)O > 76.9 µM
c1coc(-c2nn3c(Cn4nnc5ccccc54)nnc3s2)c1 > 76.9 µM
Cc1cc(C)nc(N2CCC(C(=O)Nc3ccc4c(c3)CCC4)CC2)n1 > 76.9 µM
Cc1cc2c(c(N3CCOCC3)n1)C(=O)OC2 > 76.9 µM
CC(C)(O)c1cn(-c2nonc2N)nn1 > 76.9 µM
CC1CCCCC1NC(=O)CN1CCN(Cc2ccccc2Cl)C1=O (stereo not drawn) > 76.9 µM
Nc1nc2ccccc2n1CCN1CCCC1 > 76.9 µM
COc1ccc(N2CC(C)Cn3c2nc2c3c(=O)n(Cc3ccc(F)cc3)c(=O)n2C)c(OC)c1 (stereo not drawn) > 76.9 µM
O=C(O)c1ccc(NS(=O)(=O)c2cccc3nsnc23)cc1 > 76.9 µM
COCc1cc(C)nc2sc3c(=O)oc(C)nc3c12 > 76.9 µM
O=C(Cc1ccccc1)Nc1nnc(-c2cccs2)s1 > 76.9 µM
COc1ccccc1OCC(=O)OCC(=O)NCCN1C(=O)CSC1=O > 76.9 µM
